To fix the notation:
B1: PhoQ; a variant is named by its letters at X, in order, P23837 (parent)
chain: MKKLLRLFFPLSLRVRFLLATAAVVLVLSLAYGMVALIGYSVSFDKTTFRLLRGESNLFYTLAKWENNKLHVELPENIDKQSPTMTLIYDENGQLLWAQRDVPWLMKMIQPDWLKSNGFHEIEADVNDTSLLLSGDHSIQQQLQEVREDDDDAEMTHSVAVNVYPATSRMPKLTIVVVDTIPVELKSSYMVWSWFIYVLSANLLLVIPLLWVAAWWSLRPIEALAKEVRELEEHNRELLNPATTRELTSLVRNLNRLLKSERERYDKYRTTLTDLTHSLKTPLXXLQXXLRSLRSEKMSVSDAEPVMLEQISRISQQIGYYLHRASMRGGTLLSRELHPVAPLLDNLTSALNKVYQRKGVNISLDISPEISFVGEQNDFVEVMGNVLDNACKYCLEFVEISARQTDEHLYIVVEDDGPGIPLSKREVIFDRGQRVDTLRPGQGVGLAVAREITEQYEGKIVAGESMLGGARMEVIFGRQHSAPKDE

84 variants from a collection of fitness landscapes (doi:10.1126/science.1257360) can be followed below.

The other results are listed elsewhere or left out.

In the test the parent is B1. Description: enrichment ratio after two sorts for PhoP signalling (ratio (wild type AVST 3.29)); higher = more functional. As to conditions: with PhoP (E. coli).
SRGA: the enrichment ratio is at most 0.25.

For EILK, the enrichment ratio is at most 0.25.

Turning to QFKT, the enrichment ratio was at most 0.25.

Regarding LDPL, the enrichment ratio was at most 0.25.

On to AKIT, for which the enrichment ratio amounted to 2.69.

As for HMWF, the enrichment ratio is at most 0.25.

Take DPPV: the enrichment ratio is at most 0.25.

Regarding FYIQ, the enrichment ratio was at most 0.25.

Regarding ADNF, the enrichment ratio is at most 0.25.

As for TYMV, the enrichment ratio amounted to 1.21.

For the variant HHGK, the enrichment ratio was at most 0.25.

Turning to YFPI, the enrichment ratio turned out to be 0.265.

Take RPIE: the enrichment ratio is at most 0.25.

Regarding DNCA, the enrichment ratio is at most 0.25.

For FGKE, the enrichment ratio is at most 0.25.

Regarding YCML, the enrichment ratio came to 12.7.

On to SRAM, for which the enrichment ratio is at most 0.25.

As for GSDR, the enrichment ratio was at most 0.25.

Take LALL: the enrichment ratio stood at 7.29.

On to AELI, for which the enrichment ratio was determined as 30.6.

Consider AFKV, for which the enrichment ratio is at most 0.25.

As to FFAW, the enrichment ratio is at most 0.25.

Turning to SDYP, the enrichment ratio was at most 0.25.

Consider ILYH, for which the enrichment ratio is at most 0.25.

In the case of HHYG, the enrichment ratio was at most 0.25.

In the case of SEKA, the enrichment ratio was at most 0.25.

Take PCPN: the enrichment ratio is at most 0.25.

Consider RIKI, for which the enrichment ratio was at most 0.25.

Turning to WGPI, the enrichment ratio was at most 0.25.

Regarding LACL, the enrichment ratio is at most 0.25.

TPME: the enrichment ratio is at most 0.25.

In the case of KMTK, the enrichment ratio is at most 0.25.

Take YKCK: the enrichment ratio is at most 0.25.

As for QSCP, the enrichment ratio was at most 0.25.

In the case of SVFF, the enrichment ratio was at most 0.25.

For the variant PGWV, the enrichment ratio was at most 0.25.

Take CLLA: the enrichment ratio was at most 0.25.

For IDWT, the enrichment ratio was at most 0.25.

Consider RTPV, for which the enrichment ratio was at most 0.25.

With FQEM, the enrichment ratio is at most 0.25.

Take RTWD: the enrichment ratio is at most 0.25.

Regarding MLQF, the enrichment ratio was at most 0.25.

As to FIFH, the enrichment ratio was at most 0.25.

In the case of FDAK, the enrichment ratio was at most 0.25.

Take HKAG: the enrichment ratio is at most 0.25.

Consider NKQV, for which the enrichment ratio was at most 0.25.

Consider YCHY, for which the enrichment ratio is at most 0.25.

On to MDWH, for which the enrichment ratio was at most 0.25.

As for QICP, the enrichment ratio is at most 0.25.

As for WTYY, the enrichment ratio was at most 0.25.

In the case of FHKP, the enrichment ratio is at most 0.25.

For the variant YPVT, the enrichment ratio is at most 0.25.

In the case of GDFQ, the enrichment ratio is at most 0.25.

In the case of DTVP, the enrichment ratio is at most 0.25.

Consider EIRD, for which the enrichment ratio is at most 0.25.

As for LAVP, the enrichment ratio is at most 0.25.

Turning to FDSH, the enrichment ratio was at most 0.25.

As for KGHW, the enrichment ratio is at most 0.25.

For SMCK, the enrichment ratio came to 9.85.

With MSQW, the enrichment ratio was at most 0.25.

Regarding DTMD, the enrichment ratio is at most 0.25.

Regarding WHII, the enrichment ratio is at most 0.25.

In the case of IDDI, the enrichment ratio was at most 0.25.

For VKKY, the enrichment ratio was at most 0.25.

On to WEES, for which the enrichment ratio was at most 0.25.

Turning to SQGE, the enrichment ratio was at most 0.25.

WEKC: the enrichment ratio is at most 0.25.

Turning to KKIL, the enrichment ratio was at most 0.25.

In the case of AIFK, the enrichment ratio is at most 0.25.

With HLRR, the enrichment ratio is at most 0.25.

RCDF: the enrichment ratio was at most 0.25.

For the variant RHWP, the enrichment ratio is at most 0.25.

Take QVTV: the enrichment ratio was at most 0.25.

Consider LINR, for which the enrichment ratio is at most 0.25.

LIQV: the enrichment ratio was at most 0.25.

As for YPED, the enrichment ratio is at most 0.25.

On to SVPG, for which the enrichment ratio is at most 0.25.

In the case of RAFL, the enrichment ratio was at most 0.25.

Turning to HVKN, the enrichment ratio was at most 0.25.

For PACG, the enrichment ratio is at most 0.25.

Consider RPVE, for which the enrichment ratio was at most 0.25.

For FDYP, the enrichment ratio was at most 0.25.

On to CHDR, for which the enrichment ratio is at most 0.25.

Turning to VCCS, the enrichment ratio was at most 0.25.
